± gives the standard deviation of the averaged measurements. Some of the results follow.
tested on: PfAP2-G AP2 domain (GST-tagged); test: gcPBM binding intensity (ln(normalized median fluorescence intensity)); higher = stronger DNA binding
Procedure, shortened: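 Alexa488 anti-GST antibody, scanned at 488 nm, detected GST-tagged P. falciparum DNA-binding domains that had been expressed in E. coli and incubated for 1 h on an Agilent 4 × 180k array. The array carried primer-extended double-stranded 36-bp intergenic genomic probes and negative controls. Binding intensity is the highest Masliner-normalised natural-log median intensity across replicate spots of either orientation of each probe.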

In order of falling “gcPBM binding intensity (ln)” value:
1. TATATATATATGTGTACACAAAAAATATTATATTAT [CACACA_site5505]  11.9 ± 0.93
2. ACGGATTAAAAAATGTGTACGCACAAAAAAAAAAAT [XGTACX_site8259]  11.7 ± 0.97
3. TAATGGTGTTCATGTGGTACACTTTATAAATTGGCA [XGTACX_site729]  11.7 ± 1.1
4. ATTCTATTTTTAAGTACACACATATATATATATATA [CACACA_site3658]  11.5 ± 0.87
5. TCCCCATATGTTTTGTGTACATATATATTTTTTTGT [XGTACX_site75]  11.5 ± 0.79
6. ATATATATATATGTACACATATATGTGTTTGTTTTT [GTGCAC_negctrl_site5]  11.5 ± 0.83
7. TAAATAAATTTATGTACACACACAAATAAATACATA [CACACA_site5107]  11.5 ± 1
8. ATTATATATATATTATGTACATATATTGAAGTGGAT [XGTACX_site5916]  11.4 ± 0.65
9. TTTTGAAGTAATACATGTACTTAAATTACTAAAAAA [XGTACX_site1955]  11.4 ± 0.76
10. TTAAACGTACATAATACACACACATGTAGACATATA [CACACA_site8635]  11.4 ± 0.97
11. TACGAAATCATATGTACACACACATATATATATATA [CACACA_site5216]  11.3 ± 0.92
12. AAAAAACTTCACATATGTACTTAAAAAAAATTAAAA [XGTACX_site2368]  11.3 ± 0.95
13. ATAATATATATATTTTGTACACATGAAAAGGAGGAT [XGTACX_site5034]  11.3 ± 0.81
14. TATAAAAAAAAATGTGGTACATATTTCCATTTTCCA [XGTACX_site4571]  11.3 ± 0.76
15. AAATATTATTGACGATGTACTTCTATTCATAAGTAT [XGTACX_site3964]  11.3 ± 0.89
16. TGAACATACATCAAAAGTACAAACTCGCATGTTATA [XGTACX_site3320]  11.2 ± 0.73
17. GCTTATTTTAATTCTTGTACTTATTTATATACAAAT [XGTACX_site2099]  11.2 ± 0.83
18. ACTTTGCGTTAAAAGAGTACATAATATTTTTTTTTT [XGTACX_site7533]  11.2 ± 0.73
19. TAATATATTAATATATGTACATATTTATATATCTAC [XGTACX_site7117]  11.2 ± 0.7
20. AAATCAAATTTTTAGAGTACTTAAGTTTTCTATATA [XGTACX_site7827]  11.2 ± 0.64
21. TCATATAAGTTTAGTAGTACTAAAAGTTAGAGAGAA [XGTACX_site3430]  11.2 ± 0.81
22. AATATTTTTAATTAATGTACATATTTATTATATAAA [XGTACX_site5112]  11.2 ± 0.76
23. TATATATTAAATTATAGTACACATTATATATAATTA [XGTACX_site4841]  11.2 ± 0.83
24. TATATATATAACATATGTACATATATTTATAAATAC [XGTACX_site5484]  11.2 ± 0.62
25. ATTATAAAAAAGAAACGTACATATTTATTGTTTTTT [XGTACX_site2161]  11.2 ± 0.74
26. TTTTAATTAGTACAAACACACATATACAGACAAAAA [CACACA_site2563]  11.2 ± 0.69
27. AAACTAACTCTAACATGTACATATATATATATATAT [XGTACX_site6949]  11.1 ± 0.66
28. CAAAAAAAAATCTGTAGTACTTATTAATATTGCTGT [XGTACX_site4767]  11.1 ± 0.58
29. ATAAAGTCTATATTATGTACATATAATATAAATATT [XGTACX_site6703]  11.1 ± 0.5
30. AAATTTTTTCCGATTTGTACTTATATTTCTTTATTA [XGTACX_site1762]  11.1 ± 0.61
31. TATATATATATATATAGTACACATATCACATAAATG [XGTACX_site6379]  11.1 ± 0.79
32. CATGAATTTTTTTAATGTACATTCACATCATAAAAA [XGTACX_site7475]  11.1 ± 0.6
33. TATAATAATACTTATTGTACTATTAGTTTAATTCAT [XGTACX_site6638]  11.1 ± 0.67
34. ATATATATATATATATGTACTTAATGTTATTATATA [XGTACX_site4508]  11 ± 0.85
35. TGATTATTATAATTTAGTACATAATATTTTATATAA [XGTACX_site6125]  11 ± 0.8
36. CTATTACAAAGAAATTGTACATATATATATAAAAAC [XGTACX_site8800]  11 ± 0.73
37. ATATATTATATATATAGTACGTATATAAATTTAATT [XGTACX_site5041]  11 ± 0.69
38. CCGCCATTGTACCATCCACACACATATATATATGTA [CACACA_site8866]  10.9 ± 0.45
39. GAATAATATGGACATACACACATATACATACCTATA [CACACA_site7075]  10.9 ± 0.63
40. ATACTTTATTAATATTGTACAAAATAAGAAAAAAAA [XGTACX_site310]  10.8 ± 0.47
41. TACCTATACAGACACACACACACACGCCCACAAAAA [CACACA_site6375]  10.7 ± 0.45
42. AAAATTAACGAGTGCACACATATTTAGATAAAATAC [CACACA_site2936]  10.7 ± 0.33
43. ATCGTAGTATAATATGAACACACACCCACCCACAAA [CACACA_site8616]  10.7 ± 0.34
44. AAAATTTTTTTTGGCGCACACTAATAATAAAATATA [CACACA_site470]  10.7 ± 0.57
45. TAAATCCGCACGCACACACACATATTAATAAAAAAA [CACACA_site7800]  10.6 ± 0.47
46. TTTTGGTATACGTAATTATATAATATGTTAATCAAT [CACACA_negctrl_site645]  10.5 ± 0.36
47. TATTGTCTTGTATATGCATGTAGACCAAATATGTAA [TGCATGCA_site9]  10.5 ± 0.45
48. TAAAACTTATACAAATGTACAAATATATATATATAT [XGTACX_site4661]  10.5 ± 0.4
49. TTTTTATATTTATATAAATAAAAAAATAACAAAATG [XGTACX_negctrl_site231]  10.4 ± 0.5
50. TATATAAATATACACCCACACACATATATATATATA [CACACA_site9247]  10.4 ± 0.55
51. CTCCATATTAGACACACACACAAATGAAAAAAATAT [CACACA_site7420]  10.3 ± 0.4
52. TGTTCAGTATTGCACACACACAACAAAATAAAAAAA [CACACA_site6314]  10.3 ± 0.33
53. CACAACAGGGTTGAGGTGCGTAAAAATAGTAGAATA [GTGCAC_site9523]  10.26 ± 0.064
54. TTGAAAATTCTTAAGGCACACACATATATAATATAT [CACACA_site8088]  10.3 ± 0.26
55. ATCTTTCAATAATTCACACATATATATATATATATA [CACACA_site4598]  10.3 ± 0.59
56. AATATATATTAATACACACACACATATATATATATA [CACACA_site3786]  10.3 ± 0.47
57. ACATAAAAATTATGCACACTTAATAAAGCGAAATGT [CACACA_site3183]  10.2 ± 0.13
58. CTTTTTAATGAATACACACACACACCGATATATATA [CACACA_site5296]  10.2 ± 0.29
59. AATATTCTATATGATACATGCATGATGGAATAAAAA [TGCATGCA_site980]  10.1 ± 0.16
60. TTTTTAATCCTTTGCGCATGTAAAATTATATATTTT [TGCATGCA_site306]  10.1 ± 0.11
61. GAACATTACGTAAATAAATAAATAAAAATAAATACA [XGTACX_negctrl_site25]  10.1 ± 0.22
62. ATCACAAAAAAGTTCATACACACAACCTATTTATAT [CACACA_site2888]  10.055 ± 0.007
63. CAAGGAACCAGACACACACACATAAATGTATATATA [CACACA_site752]  10.1 ± 0.18
64. AGCCACAATACGGAAACACACAAGTTATTTTATCAT [CACACA_site2724]  10.1 ± 0.13
65. TATATTCCACTCATTGATTTTCTCTTCTCACAAAAA [CACACA_negctrl_site1016]  10.1 ± 0.19
66. GAAACTATGTAATGCACACCAAAATAAAATTATTAA [CACACA_site1904]  10.1 ± 0.071
67. TACTATTATTATTGCACACTTATTATCCCTCGGATA [CACACA_site162]  10.1 ± 0.16
68. TTGATAAAATCACTGGTGCATGTAGATATATAATAT  10.06 ± 0.042
69. AAGAGAGAGAAATATGCACACATAAGGGAAATAAAT [CACACA_site8300]  10.1 ± 0.19
70. AAATAAGAGCGTAGCACACACGCATTTTATAAATGG [CACACA_site4571]  10 ± 0.11
71. TCTTCTTAACCAACTATGAAAAGGAAAAATATAACA [GTGCAC_negctrl_site565]  10 ± 0.18
72. ACATAATTATTATGCACACATATTTTTATGTATTTA [CACACA_site698]  9.99 ± 0.028
73. AATGAAGACTTTTTTACACACTTCATATCTTATAGA [CACACA_site7046]  9.99 ± 0.028
74. ATAATATATGTATGTATGCACTTTTATTATTTTTTT  9.995 ± 0.021
75. AAAATTAAACATACATCACACATGCATTATATTATG [CACACA_site5517]  9.97 ± 0.028
76. AATAATTTAATACATACACACGTATATCTTTTTTTT [CACACA_site8632]  9.955 ± 0.078
77. GAAATGTGATAATATACACACACGCATATATATATA [CACACA_site4332]  9.95 ± 0.16
78. AAAACAAAAGAATTCACACATATATATATATATATA [CACACA_site4777]  9.94 ± 0.38
79. TTCTTTTTTATTTATACATGCAATAAAAAATTGATT [TGCATGCA_site730]  9.925 ± 0.064
80. TAATATAGAAAATGCATACACACTTTATATATATAT [CACACA_site911]  9.9 ± 0.11
81. TAAAATTAAACAAAAAAAAAGAAAAAAAAAAAAAAG [CACACA_negctrl_site1098]  9.875 ± 0.007
82. TTTTTATGAATTCTTTTGTTAATAATAATATGTTGT [TGCATGCA_negctrl_site198]  9.85 ± 0.12
83. TTTTTTTAAAACAAAAAAAAAAAAAAAAAAAAAAAA [TGCATGCA_negctrl_site418]  9.84 ± 0.4
84. TTTTAACGTAATTCAAATGAGCAGAATTTTTTAAAA [CACACA_negctrl_site1800]  9.825 ± 0.007
85. AAAAAAAAGAAAAACACACACATATTTATTTATAAC [CACACA_site6600]  9.79 ± 0.11
86. AGACGATAAATCATTCATTCATTTACCATCCAAAAA [CACACA_negctrl_site802]  9.78 ± 0.057
87. TGATCATAGAAACACACACACAAAAAAAAAAAAAAA [CACACA_site4008]  9.78 ± 0.47
88. TTATTTTTATTATAAATTATAAAATATAAATAAATA [GTGCAC_negctrl_site616]  9.51 ± 0.13

From the supplement of paper PMC11417369
